Reference: the supplement of paper PMC3334620
Over roughly 33,000 sequences, “E-score (-0.5 to 0.5)” has its median near -0.021; the highest 2% begin near 0.32. Some of the results follow.

Biological target: T1, Zap1 (UniProt P47043)
T1 sequence: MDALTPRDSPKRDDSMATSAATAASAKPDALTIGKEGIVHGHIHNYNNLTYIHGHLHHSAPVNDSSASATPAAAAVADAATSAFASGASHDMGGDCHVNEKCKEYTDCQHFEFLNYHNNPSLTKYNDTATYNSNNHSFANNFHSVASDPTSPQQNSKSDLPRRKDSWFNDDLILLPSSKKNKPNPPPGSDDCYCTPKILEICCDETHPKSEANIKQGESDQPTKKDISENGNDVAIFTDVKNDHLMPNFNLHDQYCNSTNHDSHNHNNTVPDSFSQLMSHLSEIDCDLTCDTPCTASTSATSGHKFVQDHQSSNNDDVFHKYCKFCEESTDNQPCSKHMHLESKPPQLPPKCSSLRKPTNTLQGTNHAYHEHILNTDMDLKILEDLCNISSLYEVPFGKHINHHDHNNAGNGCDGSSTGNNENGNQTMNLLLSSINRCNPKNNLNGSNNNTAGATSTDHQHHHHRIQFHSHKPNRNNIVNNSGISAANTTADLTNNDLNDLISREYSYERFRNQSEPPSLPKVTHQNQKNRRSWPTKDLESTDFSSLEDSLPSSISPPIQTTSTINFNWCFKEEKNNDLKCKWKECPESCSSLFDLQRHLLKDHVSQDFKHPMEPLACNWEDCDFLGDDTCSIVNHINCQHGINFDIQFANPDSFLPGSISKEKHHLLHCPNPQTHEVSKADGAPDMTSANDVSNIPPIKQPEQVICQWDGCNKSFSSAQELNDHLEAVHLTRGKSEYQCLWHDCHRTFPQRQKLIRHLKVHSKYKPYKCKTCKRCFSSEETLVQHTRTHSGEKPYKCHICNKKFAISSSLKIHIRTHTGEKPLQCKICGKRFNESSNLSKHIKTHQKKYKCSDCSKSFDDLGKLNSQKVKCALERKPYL
Assay: PBM E-score (8-mer binding enrichment) (E-score (-0.5 to 0.5)); higher = stronger / more preferred TF binding; most listed sequences are background and not binding sites
Settings: protein concentration: 200 nM; construct: GST-full length
Outline: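 E-scores (a modified Wilcoxon-Mann-Whitney statistic) were assigned by the Universal PBM Analysis Suite to every ungapped eight-base word pooled with its reverse complement. The input came from universal all-10-mer Agilent arrays made double-stranded by primer extension and probed with GST-tagged yeast transcription factors at about 100-200 nM. Fluorescent anti-GST detected bound protein, and masliner normalised the scans.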

Row | Sequence | PBM E-score
1 | GTGAGGAA | 0.0674
2 | CGTGAAAC | -0.0245
3 | ACGCAAAT | 0.0769
4 | GTTGCGAA | 0.0158
5 | TCGGGCAA | -0.144
6 | AGACAGCG | -0.161
7 | GTCGGTAA | 0.0399
8 | ATATAAAC | 0.127
9 | CGCACGGC | -0.259
10 | GGGTTTAA | 0.242
11 | AGTCGGCC | -0.233
12 | AATACAAC | 0.113
13 | AATAACCA | 0.445
14 | GAGGAATC | -0.0505
15 | CTTACCAC | 0.14
16 | ATGATTAC | 0.124
17 | ACATTCAG | -0.0921
18 | AAATAAAA | 0.0597
19 | AGCCAGTA | -0.0664
20 | TAGATATA | 0.172
21 | GCTTACGA | 0.0406
22 | AAAGAAAA | 0.158
23 | CGTCTCAA | 0.00424
24 | ATTCTAAC | 0.228
25 | GTAATAGA | -0.06

Row | Sequence | PBM E-score
26 | AGTATACG | -0.0954
27 | AATTTACA | 0.0396
28 | CCCCTTAC | 0.0357
29 | ACTACGCC | -0.269
30 | CAATAGCA | -0.148
31 | ATAACATC | 0.0786
32 | ACTGGGTC | -0.143
33 | TGGCGCCA | -0.128
34 | ATGGTATA | 0.177
35 | GGAAAGAA | 0.00738
36 | TGCGCCAA | -0.0562
37 | CGGGGTCA | 0.332
38 | CCTGGGAC | -0.25
39 | AACAAGTA | 0.0972
40 | CCCTCCCA | 0.105
41 | AACCTCTG | 0.306
42 | GTTCAATA | 0.00661
43 | CTTTCTTA | -0.0292
44 | AAGATCCA | -0.0922
45 | CTTCCGGA | -0.136
46 | GACTCGGC | -0.356
47 | AGTACGCG | -0.0604
48 | GCGTAATA | -0.0701
49 | TATCCCCA | 0.0588
50 | GAATAGTC | 0.0144

Row | Sequence | PBM E-score
51 | ATGGGAAA | -0.107
52 | CAAAAGTC | -0.0615
53 | ATAGCTCC | -0.411
54 | CACTCCAA | -0.126
55 | GCTATACA | -0.178
56 | ACCATAGT | 0.178
57 | GTGTCTTA | -0.102
58 | CGCCATCC | -0.137
59 | GTAAACAA | 0.139
60 | ATACGCGG | -0.0533
61 | AGGGACTG | -0.209
62 | GCAAAAGA | 0.0371
63 | ACGATTAG | 0.0616
64 | GTGTTTAA | 0.212
65 | ATAGCCCG | -0.237
66 | GGGTGAAC | -0.00761
67 | CTGTTCGA | -0.0941
68 | CTAACGAA | 0.0353
69 | ATTCCTCC | -0.117
70 | AAGTGATT | 0.128
71 | CTGTTGCC | -0.317
72 | GACTTTTA | -0.0234
73 | ATAGACCG | -0.0134
74 | CTTCGCTC | -0.156
75 | GAAATCCA | 0.0709

Row | Sequence | PBM E-score
76 | CTGCCGTC | -0.247
77 | CAGCTGGG | -0.154
78 | GGTTAATA | 0.302
79 | AGACTACC | 0.13
80 | GCATAGCC | -0.229
81 | ATCAAACC | 0.242
82 | CGTGGATA | -0.0309
83 | AACGAGTA | 0.172
84 | GCGGTACA | 0.13
85 | ACGTTCAG | -0.188
86 | AAGCGGTC | 0.0193
87 | ATCCAGTC | -0.137
88 | AGCACACT | -0.204
89 | CAATTGTA | -0.0869
90 | ATCAGATC | -0.151
91 | ACAACCCC | 0.321
92 | GATGGTAC | 0.199
93 | ATAACGGA | 0.0366
94 | AGGCTTAT | -0.135
95 | ATAGCCTA | -0.0718
96 | GCTGCTAA | -0.0685
97 | AATACAGG | 0.24
98 | GTCTTAGA | 0.0182
99 | CGTGCAAC | 0.111
100 | AACAGATC | 0.0769

Row | Sequence | PBM E-score
101 | ACGCGCCC | -0.0682
102 | GTTGGCTA | 0.0491
103 | GGGTTACC | 0.463
104 | CCAGTCCG | -0.204
105 | CCATTATC | 0.109
106 | TAATCAGA | 0.0679
107 | CATTTCAC | -0.0644
108 | CTCCGCAC | -0.254
109 | GCCCTCAC | -0.102
110 | CATCTGCC | -0.109
111 | CCTGGGGC | -0.284
112 | AACTGCTC | -0.117
113 | CGCTCTCC | -0.119
114 | ACATGAAT | -0.0503
115 | CCCCTCCA | -0.00574
116 | AGATTCCC | -0.127
117 | CTATAACA | -0.0126
118 | ACGATGGG | -0.169
119 | ATTGCAAG | 0.0585
120 | AGATCACA | -0.0473
121 | AGGCAGAA | -0.127
122 | CCCGAAAG | 0.233
123 | CATGTGGC | -0.0501
124 | AAGGCTAT | -0.0179
125 | AGAGATCC | -0.116

Row | Sequence | PBM E-score
126 | CCACTTAC | 0.134
127 | CTAGCCGC | -0.147
128 | GGCGCGCC | 0.0298
129 | ACTACAAT | 0.094
130 | GGAAGTTA | 0.142
131 | ATAACACG | 0.0377
132 | ATTTCCCA | 0.17
133 | AGGCATCC | -0.259
134 | GGTTCATA | 0.0735
135 | CCCCCCGG | -0.0499
136 | AATCAAAC | 0.15
137 | GTTGCTAA | 0.196
138 | CGATCTAC | -0.177
139 | CCTGTTAC | 0.0992
140 | CGAACAGC | -0.193
141 | CCCTGTGA | 0.17
142 | CTGTGAAG | 0.0227
143 | ACCTGATA | 0.13
144 | CCCGTTCA | -0.0223
145 | CTATATAC | 0.249
146 | CCAACAGG | 0.0645
147 | AAAGGGGG | -0.385
148 | TTGACAAA | 0.153
149 | GTGGCTAA | 0.0596
150 | ACAATCGT | -0.176

Row | Sequence | PBM E-score
151 | GGTACTAA | 0.278
152 | ACGATCCC | -0.00345
153 | CCAAGCGG | -0.206
154 | AGAGCAAG | -0.196
155 | ACACGAGT | 0.0998
156 | GCGGTATA | -0.0994
157 | CGTCCATA | 0.125
158 | GGCCACCA | 0.123
159 | CGGAATTA | 0.08
160 | CCTTAGCC | -0.0691
161 | TCTAAAGA | 0.117
162 | ACTCCGGA | 0.153
163 | CCAGTCAA | -0.0553
164 | AACGGATA | 0.129
165 | AACCTTAT | 0.312
166 | ACGGGCAC | -0.0743
167 | CGCGAGGC | 0.0814
168 | AATAGATC | 0.131
169 | AATAATGA | 0.0602
170 | GAAAATGA | -0.00655
171 | ATGCGAAT | -0.0864
172 | AGACCAAG | 0.0881
173 | GAATGCAA | 0.0208
174 | ACCGGTAC | 0.256
175 | CGATAAGC | -0.211

Row | Sequence | PBM E-score
176 | TGGAGGAA | -0.158
177 | AGATAGGG | -0.0822
178 | CTGCCAAA | 0.0278
179 | CGATTCTA | -0.199
180 | AAGAAGGT | 0.269
181 | AGTCCACT | -0.213
182 | AAAAGTCC | 0.0858
183 | CTACCGCC | 0.103
184 | AAGTCATC | 0.0259
185 | AGAAGGCC | 0.0295
186 | AAGAACGG | -0.199
187 | CCGCCAAA | 0.124
188 | AACTACAC | 0.0497
189 | CCACCCAG | 0.217
190 | TACACAAA | 0.211
191 | GATAGTCA | -0.0807
192 | GTATGGAA | 0.068
193 | GGGGTAGA | 0.014
194 | GCTCTTAA | 0.0298
195 | CCTGTGAA | 0.0649
196 | AATAGCTA | 0.0811
197 | AAAGCATA | -0.0596
198 | ATCTATAA | 0.0901
199 | GGGCTCCA | -0.206
200 | CAGGTACA | 0.101

Row | Sequence | PBM E-score
201 | CATATTCC | -0.15
202 | CCCGGGGC | 0.0993
203 | ATGTACAC | -0.0654
204 | GAACCATC | -0.0493
205 | CACGCGGA | 0.0723
206 | CCCTGACG | 0.0529
207 | GACCAAAA | 0.28
208 | AACTCAGT | -0.0972
209 | GCGGATAA | 0.0975
210 | TCACCTCA | 0.13
211 | TATTGTAA | 0.0918
212 | CGGCTCAA | 0.0563
213 | AGGCCTCC | -0.0325
214 | GGATTCAC | 0.0709
215 | ATTGGCTG | -0.0836
216 | GCTAACCA | 0.235
217 | AGCCCTAG | -0.14
218 | CATTAAAA | 0.225
219 | ATGCTAAT | -0.068
